Results from PubChem BioAssay AID504832 (National Center for Advancing Translational Sciences (NCATS), 2011).
Where “and” joins values, the source holds several entries; their conditions need not be identical. Identical values can stand only once. The whole screen tested about 310,000 compounds, of which about 18,000 (5.8%) were called active. Inconclusive results, whose numbers are uncertain, are shown with a selection of clear calls. Calls follow the shape of the dose curve; as a rule, active = well fitted inhibition curve with a large enough effect; inconclusive = small, poorly fitted or top-dose-only effect, or another doubt; inactive = no such curve, though single readings can be large or run the other way. Where the call is inconclusive, the potency comes from a doubtful curve fit.

assay: Primary qHTS for delayed death inhibitors of the malarial parasite plastid, 48 hour incubation; details: P. falciparum luciferase growth in erythrocytes; series mostly up to 28.7 µM
Outline: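 Read-out is firefly luciferase luminescence from an integrated reporter in P. falciparum, so falling signal marks reduced parasite growth. Infected erythrocytes were at 2% hematocrit and 0.1% parasitemia (final) in Albumax-supplemented RPMI 1640.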
Potency is read from the fitted curve at half-maximal effect; tags tell the direction and shape of the fitted curve.

**Q.** With `CSc1nc2ccc(NC(=O)C3CC(=O)N(Cc4ccco4)C3)cc2s1` (configuration not stated) as the compound, how does the Potency read?
**A.** The Potency was inconclusive: 10.4 µM [inhibitor, partial curve, poor fit].

**Q.** For `O=C(Cn1c(C(=O)N2CCN(C3CCCC3)CC2)cc2sccc21)c1ccccc1`, which Potency is on record?
**A.** Its Potency is inconclusive: 10.4 µM [inhibitor, single point].

**Q.** With `NC(=O)NC(CCC(=O)O)C(=O)O` (configuration not stated) as the compound, how does the Potency read?
**A.** Its Potency is “inactive”.

**Q.** Which Potency does the source give for `CCOC(=O)C1(CCCc2ccccc2)CCN(C(=O)CCCn2cncn2)CC1` here?
**A.** Its Potency is inconclusive: 14.7 µM [inhibitor, partial curve, poor fit].

**Q.** Which Potency does the source give for `O=C1CN(C(=O)c2ccc(Br)o2)C(c2ccc(F)cc2)c2cc(Cl)ccc2N1` (configuration not stated) here?
**A.** Its Potency is inconclusive: 11.7 µM [inhibitor, partial curve, poor fit].

**Q.** Which Potency does the source give for `CN(C)/C=C/C(=O)c1ccc(Cl)cc1Cl` here?
**A.** The Potency was “inactive”.

**Q.** Which Potency does the source give for `O=C(COc1ccc2c3c(c(=O)oc2c1)CCC3)NC(Cc1ccc(Cl)cc1)C(=O)O` (configuration not stated) here?
**A.** The Potency was inconclusive: 13.1 µM [inhibitor, single point].

**Q.** With `Fc1ccc(C(c2nnnn2C2CCCC2)N2CCN(Cc3ccccc3)CC2)cc1` (configuration not stated) as the compound, how does the Potency read?
**A.** The Potency was active: 9.28 µM.

**Q.** Which Potency does the source give for `O=C(CSCC(=O)c1ccccc1)Nc1ccccc1Cl` here?
**A.** The Potency was “inactive”.

**Q.** For `CCCCOc1ccc(Cl)cc1CSc1n[nH]c(C)n1`, which Potency is on record?
**A.** The Potency was inconclusive: 18.5 µM [inhibitor, single point].

**Q.** With `CC(C)CCNC(=O)C(c1cccnc1)N(CCc1ccccc1)C(=O)Cn1nnc2ccccc21` (configuration not stated) as the compound, how does the Potency read?
**A.** Its Potency is inconclusive: 13.1 µM [inhibitor, single point].

**Q.** For `CC(C)(C)C(=O)Nc1ccccc1-c1nc2ccccc2[nH]c1=O`, which Potency is on record?
**A.** Its Potency is “inactive”.

**Q.** Which Potency does the source give for `CCc1c(C)[nH]c2ccc(OC)cc2c1=S` here?
**A.** Its Potency is inconclusive: 7.38 µM [inhibitor, partial curve, poor fit].

**Q.** With `C#CCOc1nc(Nc2cccc([N+](=O)[O-])c2)nc(OCC#C)n1` as the compound, how does the Potency read?
**A.** The Potency was inconclusive: 18.5 µM [inhibitor, single point].

**Q.** With `CCCC(=O)NCCc1nc2ccccc2n1C` as the compound, how does the Potency read?
**A.** Its Potency is “inactive”.

**Q.** Which Potency does the source give for `Cc1ccc(S(=O)(=O)N(C)c2cc(S(=O)(=O)N3CCC(C)CC3)c(C)cc2C)cc1` here?
**A.** The Potency was active: 10.4 µM.

**Q.** Which Potency does the source give for `COc1ccc(C(C)=O)cc1CSc1ccc(S(=O)(=O)N2CCCCC2)cn1` here?
**A.** The Potency was inconclusive: 18.5 µM [inhibitor, single point].

**Q.** For `C=C(C)c1cccc(C(C)(C)NC(=O)NC(c2ccccc2)c2ccc(OC)cc2)c1` (configuration not stated), which Potency is on record?
**A.** The Potency was inconclusive: 9.28 µM [inhibitor, partial curve].

**Q.** For `CCN(CC(=O)Nc1ccc(NC(C)=O)cc1)C(=O)c1cc(-c2ccccc2)nn1-c1ccccc1`, which Potency is on record?
**A.** The Potency was inconclusive: 11.7 µM [inhibitor, single point].

**Q.** Which Potency does the source give for `CCn1c(CNc2nc3ccccc3n2C(C)C)nc2ccccc21` here?
**A.** The Potency was inconclusive: 10.4 µM [inhibitor, single point].

**Q.** Which Potency does the source give for `CCOC(=O)c1ccc(Nc2ncnc3ccc(C)cc23)cc1` here?
**A.** Its Potency is inconclusive: 8.28 µM [inhibitor, partial curve, poor fit].

**Q.** For `C/C(=N/NC(=O)Cc1cccn1C)c1ccccc1`, which Potency is on record?
**A.** The Potency was inconclusive: 0.117 µM [inhibitor, full curve, poor fit].

**Q.** With `O=C(NCCc1ccc(F)cc1)c1ccncc1` as the compound, how does the Potency read?
**A.** The Potency was “inactive”.

**Q.** With `CCCNC(=O)C(Cc1cccc(OC)c1)NC(=O)c1ccc(C(C)(C)C)cc1` (configuration not stated) as the compound, how does the Potency read?
**A.** Its Potency is inconclusive: 10.4 µM [inhibitor, single point].

**Q.** Which Potency does the source give for `O=C(Nc1cccc(S(=O)(=O)N2CCCCC2)c1)c1cc([N+](=O)[O-])ccc1N1CCOCC1` here?
**A.** Its Potency is inconclusive: 18.5 µM [inhibitor, single point].

**Q.** Which Potency does the source give for `COc1ccc(NC(=O)/C(C#N)=C/c2ncc([N+](=O)[O-])n2C)c(OC)c1` here?
**A.** Its Potency is “inactive”.

**Q.** With `CCN(c1ccccc1)S(=O)(=O)c1cccc(C(=O)NCc2ccccn2)c1` as the compound, how does the Potency read?
**A.** Its Potency is inconclusive: 9.28 µM [inhibitor, single point].

**Q.** With `Cc1sc2ccccc2c1CC1=NCCN1` as the compound, how does the Potency read?
**A.** The Potency was inconclusive: 13.5 µM [inhibitor, single point] and inconclusive: 18.5 µM [inhibitor, single point].

**Q.** With `COc1cccc(-c2ccc3ncnc(NCc4cccc(C)c4)c3c2)c1` as the compound, how does the Potency read?
**A.** Its Potency is active: 7.38 µM and active: 6.57 µM.

**Q.** With `Cc1ccc(S(=O)(=O)N2c3ccccc3NC(=O)C2CC(=O)Nc2ccccc2)cc1` (configuration not stated) as the compound, how does the Potency read?
**A.** Its Potency is inconclusive: 16.5 µM [inhibitor, single point].

**Q.** Which Potency does the source give for `COc1ccc(NC(=O)c2ccc(NC(=O)c3ccco3)cc2)c(OC)c1` here?
**A.** Its Potency is inconclusive: 18.5 µM [inhibitor, single point].

**Q.** Which Potency does the source give for `CCOC(=O)C1=C(C)NC(=S)N(C(C)=O)C1c1ccc(OC)c(OC)c1` (configuration not stated) here?
**A.** Its Potency is “inactive”.

**Q.** Which Potency does the source give for `CCOC(=O)C1=NOC(COc2ccccc2C=O)C1` (configuration not stated) here?
**A.** The Potency was inconclusive: 9.28 µM [inhibitor, partial curve].

**Q.** With `Cc1ccccc1N(CC(=O)NC1CCCCC1)C(=O)CCC(=O)Nc1nccs1` as the compound, how does the Potency read?
**A.** The Potency was inconclusive: 9.28 µM [inhibitor, partial curve, poor fit].

**Q.** For `CCc1ccc(/C=C2/SC(=S)N(CCCC(=O)Nc3ccccc3C(=O)O)C2=O)cc1`, which Potency is on record?
**A.** The Potency was “inactive”.

**Q.** For `COC(=O)c1ccc2[nH]c(CO)c(-c3ccccc3)c2c1`, which Potency is on record?
**A.** The Potency was inconclusive: 18.5 µM [inhibitor, single point].

**Q.** Which Potency does the source give for `CCc1ccc(NC(=O)CCCn2nc(CC)n3c(cc4occc43)c2=O)cc1` here?
**A.** The Potency was inconclusive: 11.7 µM [inhibitor, single point].

**Q.** For `COc1ccc(/C=N/Nc2nc(N3CCCCC3)nc(N3CCCCC3)n2)cc1[N+](=O)[O-]`, which Potency is on record?
**A.** The Potency was inconclusive: 13.1 µM [inhibitor, single point].

**Q.** Which Potency does the source give for `CN1c2ccccc2C(C)(C)C12CC(c1cccc(S(=O)(=O)N3CCCC3)c1)=NO2` (configuration not stated) here?
**A.** Its Potency is active: 10.4 µM.

**Q.** With `CC(=O)Nc1ccc(S(=O)(=O)NCC(=O)NCCCc2ccccc2)cc1` as the compound, how does the Potency read?
**A.** Its Potency is inconclusive: 0.0928 µM [inhibitor, full curve, poor fit].

**Q.** Which Potency does the source give for `C=CCOC(=O)C1=C[C@@H](C2CCCCC2)C[C@@H](OCc2ccc(CO)cc2)O1` here?
**A.** Its Potency is inconclusive: 18.5 µM [inhibitor, single point].

**Q.** With `CCOc1ccccc1N(CC(=O)Nc1ccccc1C(=O)O)S(C)(=O)=O` as the compound, how does the Potency read?
**A.** Its Potency is “inactive”.
